From PubChem BioAssay (Tox21)
Inconclusive means that the source gave no clear call. Such entries were picked first, then a sample of the others. Potencies of inconclusive entries are left out as doubtful fits. Calls of active or inactive are those of the source. Calls follow the shape of the dose curve; as a rule, active = well fitted curve in the direction sought with a large enough effect in the repeat runs; inconclusive = weak or mixed curves; inactive = no such curve, though single readings can be large; an effect the other way counts as inactive or inconclusive.
Also: nearly all actives have a fitted effect of over 50% in size.
Potency is read from the fitted curve at half-maximal effect; tags tell the direction and shape of the fitted curve.

Assay: qHTS assay to identify small molecule antagonists of the estrogen related receptor (ERR) signaling pathway from Tox21 library (AID 1224848)
Details: ERR reporter cell line, luciferase antagonist mode, 18 h; series mostly up to 92.4 µM
Summary of the method: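 Tox21 10K compounds in DMSO tested for ERR pathway antagonism in NTP's ERR cell line; 18 h, 37 C exposure; ONE-Glo luminescence.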
With `CCOC(=O)C1=NN(c2ccc(Cl)cc2Cl)C(C)(C(=O)OCC)C1` (configuration not stated) the Potency was active: 48.6 µM. In the case of `COc1ccc2cc(CCC(C)=O)ccc2c1`, the Potency is reported as “inactive”. For `Cc1c(F)cc2c(=O)c(C(=O)O)cn3c2c1CCC3C` (configuration not stated), the Potency was inconclusive [inhibitor, single point]. With `COC(=O)C1=C(C)NC(C)=C(C(=O)OC(C)C)C1c1cccc2nonc12` (configuration not stated) the Potency was inconclusive [inhibitor, partial curve]. For `CC(C)C/C=C(\C=O)c1ccccc1`, the Potency was inconclusive [inhibitor, partial curve, poor fit]. For `CN(C)C(=O)NC1(c2ccccc2)CCN(CC[C@@]2(c3ccc(F)c(F)c3)CN(C(=O)c3ccccc3)CCO2)CC1`, the Potency was inconclusive [inhibitor, partial curve]. For `Cc1cc(O)c2c(O)c3c(O)cccc3cc2c1`, the Potency was inconclusive [inhibitor].

Assay: qHTS RealTime-Glo MT Cell Viability Assay in HepG2 cells - 24 hour (AID 1224867)
Details: RealTime-Glo luminescence; series mostly up to 76.8 µM
Summary of the method: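 Tox21 10K library screened in qHTS format on HepG2 cells carrying RealTime-Glo reagents. Compounds were added after a 5 h preincubation, and the luminescent signal from continuous culture was measured repeatedly during 40 h treatment.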
With `O=C(Nc1ccccc1)c1cc([N+](=O)[O-])ccc1Cl` the Potency was “inactive”. For `COc1ccc(C(=O)Nc2nc3ccccc3c(NCc3ccccc3)c2C#N)cc1`, the Potency was inconclusive [falling, partial curve]. For `COC(=O)C1=C(C)NC(C)=C(C(=O)OC(C)C)C1c1cccc2nonc12` (configuration not stated), the Potency was inconclusive [falling, partial curve]. With `CCCCCCCCCCc1ccccc1` the Potency was “inactive”.

Assay: qHTS RealTime-Glo MT Cell Viability Assay in HEK293 cells - 32 hour (AID 1224868)
Details: RealTime-Glo luminescence; series mostly up to 76.8 µM
Summary of the method: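 Luminescence generated by NanoLuc from substrate produced by living HEK293 cells served as the viability signal. Each value reflects the reading at its stated time point during continuous 40 h compound exposure at 37 C.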
For `CCOC(=O)C1=NN(c2ccc(Cl)cc2Cl)C(C)(C(=O)OCC)C1` (configuration not stated), the Potency was inconclusive [cytotoxic, partial curve]. For `O=C1c2cccc3c2[C@H](CCC3)CN1[C@@H]1CN2CCC1CC2`, the Potency was inconclusive [cytotoxic, full curve]. For `C[N+](C)(CCOc1ccccc1)Cc1cccs1`, the Potency was “inactive”. In the case of `O=C(N[C@@H](Cc1ccccc1)[C@@H](O)C(=O)N1C[C@@H](O)[C@@H](O)C1)c1cc2cc(Cl)ccc2[nH]1`, the Potency is reported as inconclusive [cytotoxic, partial curve]. In the case of `Nc1nc(CC(=O)O)cs1`, the Potency is reported as inconclusive [cytotoxic, partial curve]. In the case of `CCc1ccc(CCOc2ccc(CC3SC(=O)NC3=O)cc2)nc1` (configuration not stated), the Potency is reported as inconclusive [cytotoxic, single point]. In the case of `OCCOCCN1CCN(C2=Nc3ccccc3Sc3ccccc32)CC1`, the Potency is reported as inconclusive [cytotoxic, partial curve]. In the case of `NNc1nncc2ccccc12`, the Potency is reported as inconclusive [cytotoxic, single point]. In the case of `CC(=O)N(O)CCCCCNC(=O)CCC(=O)N(O)CCCCCNC(=O)CCC(=O)N(O)CCCCCN`, the Potency is reported as inconclusive [cytotoxic, partial curve]. For `CN(C)C(=O)NC1(c2ccccc2)CCN(CC[C@@]2(c3ccc(F)c(F)c3)CN(C(=O)c3ccccc3)CCO2)CC1`, the Potency was inconclusive [cytotoxic, partial curve]. For `O=C1[C@H](CC[C@H](O)c2ccc(F)cc2)[C@@H](c2ccc(O)cc2)N1c1ccc(F)cc1`, the Potency was active: 19 µM.
